From the supplement of paper PMC4604168 (melanoma cell lines)
The list shows a part of the results. Single values are uncertain, as repeats are few or missing.

Test system: C32
Test: cell count relative to DMSO control; melanoma cells; higher = more viable cells
Conditions: library dose: standard library concentration; 72 h
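Note: cells treated in 1,536-well plates, then fixed and DAPI-stained, with nuclei counted from automated high-throughput microscope images.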

| SMILES | cell count [%] |
| --- | --- |
| CS(=O)(=O)c1ccc(C(=O)Nc2ccc(Cl)c(-c3ccccn3)c2)c(Cl)c1 [vismodegib] + CNC(=O)c1cc(Oc2ccc(NC(=O)Nc3ccc(Cl)c(C(F)(F)F)c3)cc2)ccn1 [sorafenib] (first compound 5 µM, partner dose 2 µM) | 95.1 |
| C=C(c1ccc(C(=O)O)cc1)c1cc2c(cc1C)C(C)(C)CCC2(C)C [Bexarotene] + Clc1ccc(Nc2nnc(Cc3ccncc3)c3ccccc23)cc1 [vatalanib] (first compound 10 µM, partner dose 10 µM) | 103 |
| CN(c1ncccc1CNc1nc(Nc2ccc3c(c2)CC(=O)N3)ncc1C(F)(F)F)S(C)(=O)=O + CO[C@H]1C[C@@H]2CC[C@@H](C)[C@@](O)(O2)C(=O)C(=O)N2CCCC[C@H]2C(=O)O[C@H]([C@H](C)C[C@@H]2CC[C@@H](OCCO)[C@H](OC)C2)CC(=O)[C@H](C)/C=C(\C)[C@@H](O)[C@@H](OC)C(=O)[C@H](C)C[C@H](C)/C=C/C=C/C=C/1C [everolimus] (first compound 0.4 µM, partner dose 0.1 µM) | 69.5 |
| NC1(c2ccc(-c3nc4ccn5c(=O)[nH]nc5c4cc3-c3ccccc3)cc2)CCC1 + Cc1cc(N2CCOCC2)cc2[nH]c(-c3c(NC[C@@H](O)c4cccc(Cl)c4)cc[nH]c3=O)nc12 [BMS536924] (first compound 2 µM, partner dose 1 µM) | 74.3 |
| NC1(c2ccc(-c3nc4ccn5c(=O)[nH]nc5c4cc3-c3ccccc3)cc2)CCC1 + NCC(=O)Nc1ccc(-n2nc(C(F)(F)F)cc2-c2ccc3c(ccc4ccccc43)c2)cc1 [OSU03012] (first compound 2 µM, partner dose 5 µM) | 71 |
| CCCS(=O)(=O)Nc1ccc(F)c(C(=O)c2c[nH]c3ncc(Cl)cc23)c1F + Nc1ncn([C@H]2C[C@H](O)[C@@H](CO)O2)c(=O)n1 [decitabine] (first compound 0.4 µM, partner dose 0.5 µM) | 87.5 |
| C=C(c1ccc(C(=O)O)cc1)c1cc2c(cc1C)C(C)(C)CCC2(C)C [Bexarotene] + Nc1cccc2c1CN(C1CCC(=O)NC1=O)C2=O [lenalidomide] (first compound 10 µM, partner dose 5 µM) | 111 |
| C=C(c1ccc(C(=O)O)cc1)c1cc2c(cc1C)C(C)(C)CCC2(C)C [Bexarotene] + NC(=O)Nc1cc(-c2cccc(F)c2)sc1C(=O)N[C@H]1CCCNC1 [AZD7762] (first compound 10 µM, partner dose 0.1 µM) | 69.3 |
| CCCS(=O)(=O)Nc1ccc(F)c(C(=O)c2c[nH]c3ncc(Cl)cc23)c1F + O=C(CCCCCCC(=O)Nc1ccccc1)NO [vorinostat] (first compound 0.4 µM, partner dose 0.4 µM) | 81.4 |
| CN(c1ncccc1CNc1nc(Nc2ccc3c(c2)CC(=O)N3)ncc1C(F)(F)F)S(C)(=O)=O + CCCS(=O)(=O)Nc1ccc(F)c(C(=O)c2c[nH]c3ncc(Cl)cc23)c1F [PLX4720] (first compound 0.4 µM, partner dose 0.4 µM) | 76.7 |
| NC1(c2ccc(-c3nc4ccn5c(=O)[nH]nc5c4cc3-c3ccccc3)cc2)CCC1 + COc1ccc(Cl)c(Nc2nc3ccccc3nc2NS(=O)(=O)c2cccc(NC(=O)C(C)(C)N)c2)c1 [XL147] (first compound 2 µM, partner dose 4 µM) | 82.5 |
| CS(=O)(=O)c1ccc(C(=O)Nc2ccc(Cl)c(-c3ccccn3)c2)c(Cl)c1 [vismodegib] + C=CCn1c(=O)c2cnc(Nc3ccc(N4CCN(C)CC4)cc3)nc2n1-c1cccc(C(C)(C)O)n1 [MK1775] (first compound 5 µM, partner dose 0.1 µM) | 111 |
| CS(=O)(=O)c1ccc(C(=O)Nc2ccc(Cl)c(-c3ccccn3)c2)c(Cl)c1 [vismodegib] + COc1ccc(Cl)c(Nc2nc3ccccc3nc2NS(=O)(=O)c2cccc(NC(=O)C(C)(C)N)c2)c1 [XL147] (first compound 5 µM, partner dose 4 µM) | 89.6 |
| NC1(c2ccc(-c3nc4ccn5c(=O)[nH]nc5c4cc3-c3ccccc3)cc2)CCC1 + COc1cc(Nc2ncc(F)c(Nc3ccc4c(n3)NC(=O)C(C)(C)O4)n2)cc(OC)c1OC [Tamatinib] (first compound 2 µM, partner dose 2 µM) | 70.6 |
| C=C(c1ccc(C(=O)O)cc1)c1cc2c(cc1C)C(C)(C)CCC2(C)C [Bexarotene] + NCC(=O)Nc1ccc(-n2nc(C(F)(F)F)cc2-c2ccc3c(ccc4ccccc43)c2)cc1 [OSU03012] (first compound 10 µM, partner dose 5 µM) | 106 |
| CS(=O)(=O)c1ccc(C(=O)Nc2ccc(Cl)c(-c3ccccn3)c2)c(Cl)c1 [vismodegib] + O=C(O)c1ccc(-c2c[nH]c3ncc(-c4ccccc4)cc23)cc1C1CCCC1 [GSK650394] (first compound 5 µM, partner dose 0.8 µM) | 83.5 |

| SMILES | cell count [%] |
| --- | --- |
| NC1(c2ccc(-c3nc4ccn5c(=O)[nH]nc5c4cc3-c3ccccc3)cc2)CCC1 + CO[C@@H]1[C@H](N(C)C(=O)c2ccccc2)C[C@H]2O[C@]1(C)n1c3ccccc3c3c4c(c5c6ccccc6n2c5c31)C(=O)NC4 [Midostaurin] (first compound 2 µM, partner dose 0.4 µM) | 78.3 |
| CN(c1ncccc1CNc1nc(Nc2ccc3c(c2)CC(=O)N3)ncc1C(F)(F)F)S(C)(=O)=O + Nc1ncn([C@H]2C[C@H](O)[C@@H](CO)O2)c(=O)n1 [decitabine] (first compound 0.4 µM, partner dose 0.5 µM) | 70.9 |
| CN(c1ncccc1CNc1nc(Nc2ccc3c(c2)CC(=O)N3)ncc1C(F)(F)F)S(C)(=O)=O + Cn1c(Nc2ccc(C(F)(F)F)cc2)nc2cc(Oc3ccnc(-c4ncc(C(F)(F)F)[nH]4)c3)ccc21 [CHIR265] (first compound 0.4 µM, partner dose 0.4 µM) | 49.9 |
| NC1(c2ccc(-c3nc4ccn5c(=O)[nH]nc5c4cc3-c3ccccc3)cc2)CCC1 + O=C(Nc1cccc(Cl)c1)Nc1ncc(CCNc2ncnc3ccsc23)s1 [SNS314] (first compound 2 µM, partner dose 0.004 µM) | 86.8 |
| CCCS(=O)(=O)Nc1ccc(F)c(C(=O)c2c[nH]c3ncc(Cl)cc23)c1F + Clc1ccc(Nc2nnc(Cc3ccncc3)c3ccccc23)cc1 [vatalanib] (first compound 0.4 µM, partner dose 10 µM) | 80.7 |
| NC1(c2ccc(-c3nc4ccn5c(=O)[nH]nc5c4cc3-c3ccccc3)cc2)CCC1 + C[C@@H](Oc1cc(-c2cnn(C3CCNCC3)c2)cnc1N)c1c(Cl)ccc(F)c1Cl [Crizotinib] (first compound 2 µM, partner dose 1 µM) | 70.6 |
| CN(c1ncccc1CNc1nc(Nc2ccc3c(c2)CC(=O)N3)ncc1C(F)(F)F)S(C)(=O)=O + Cn1nnc2c(C(N)=O)ncn2c1=O [temozolomide] (first compound 0.4 µM, partner dose 10 µM) | 76.5 |
| NC1(c2ccc(-c3nc4ccn5c(=O)[nH]nc5c4cc3-c3ccccc3)cc2)CCC1 + Cn1c(=O)n(-c2ccc(C(C)(C)C#N)cc2)c2c3cc(-c4cnc5ccccc5c4)ccc3ncc21 [NVP-BEZ235] (first compound 2 µM, partner dose 0.02 µM) | 89.7 |
| C=C(c1ccc(C(=O)O)cc1)c1cc2c(cc1C)C(C)(C)CCC2(C)C [Bexarotene] + C#Cc1cccc(Nc2ncnc3cc(OCCOC)c(OCCOC)cc23)c1 [erlotinib] (first compound 10 µM, partner dose 4 µM) | 98.2 |
| CCCS(=O)(=O)Nc1ccc(F)c(C(=O)c2c[nH]c3ncc(Cl)cc23)c1F + CC1(C)NC(=O)N(c2ccc([N+](=O)[O-])c(C(F)(F)F)c2)C1=O [nilutamide] (first compound 0.4 µM, partner dose 5 µM) | 75.5 |
| NC1(c2ccc(-c3nc4ccn5c(=O)[nH]nc5c4cc3-c3ccccc3)cc2)CCC1 + C#Cc1cccc(Nc2ncnc3cc(OCCOC)c(OCCOC)cc23)c1 [erlotinib] (first compound 2 µM, partner dose 4 µM) | 81.7 |
| CCCS(=O)(=O)Nc1ccc(F)c(C(=O)c2c[nH]c3ncc(Cl)cc23)c1F + OCCn1cc(-c2cnc3nnn(Cc4ccc5ncccc5c4)c3n2)cn1 [PF04217903] (first compound 0.4 µM, partner dose 5 µM) | 77.3 |
| CS(=O)(=O)c1ccc(C(=O)Nc2ccc(Cl)c(-c3ccccn3)c2)c(Cl)c1 [vismodegib] + Nc1nc(F)nc2c1ncn2[C@@H]1O[C@H](CO)[C@@H](O)[C@@H]1O [fludarabine] (first compound 5 µM, partner dose 1 µM) | 106 |
| NC1(c2ccc(-c3nc4ccn5c(=O)[nH]nc5c4cc3-c3ccccc3)cc2)CCC1 + C[C@]1(c2nc3c(C(N)=O)cccc3[nH]2)CCCN1 [Veliparib] (first compound 2 µM, partner dose 7 µM) | 89.6 |
| CS(=O)(=O)c1ccc(C(=O)Nc2ccc(Cl)c(-c3ccccn3)c2)c(Cl)c1 [vismodegib] + C#Cc1cccc(Nc2ncnc3cc(OCCOC)c(OCCOC)cc23)c1 [erlotinib] (first compound 5 µM, partner dose 4 µM) | 93.3 |
